Measured values as given in PubChem BioAssay AID485344 (National Center for Advancing Translational Sciences (NCATS), 2010).
In all, about 340,000 compounds went through this assay and about 6,900 (2%) were called active. Rule as the data show it: active = inhibition above about 30%; inactive = below that, where a call was filed. The list shows a part of the results, in another mix than the full data. Where no call is shown, the source filed none.

Target: D(2) dopamine receptor (Homo sapiens) (UniProt P14416)
Experiment: HTS Assay for Allosteric Antagonists of the Human D2 Dopamine Receptor: Primary Screen for Antagonists; also: 0% is about no effect
Settings: HEK293 TREx D2 cells, calcium flux, dopamine EC80; at 10 µM; stronger effect = higher value
Summary of the method: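 Overnight-induced (tetracycline, 30 C) HEK293 T-REx cells carrying force-coupled D2 receive a no-wash calcium dye, then compound, then EC80 dopamine at 180 s; signals are read kinetically throughout.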

Sequence of UniProt P14416 (P14416 whole entry, looked up): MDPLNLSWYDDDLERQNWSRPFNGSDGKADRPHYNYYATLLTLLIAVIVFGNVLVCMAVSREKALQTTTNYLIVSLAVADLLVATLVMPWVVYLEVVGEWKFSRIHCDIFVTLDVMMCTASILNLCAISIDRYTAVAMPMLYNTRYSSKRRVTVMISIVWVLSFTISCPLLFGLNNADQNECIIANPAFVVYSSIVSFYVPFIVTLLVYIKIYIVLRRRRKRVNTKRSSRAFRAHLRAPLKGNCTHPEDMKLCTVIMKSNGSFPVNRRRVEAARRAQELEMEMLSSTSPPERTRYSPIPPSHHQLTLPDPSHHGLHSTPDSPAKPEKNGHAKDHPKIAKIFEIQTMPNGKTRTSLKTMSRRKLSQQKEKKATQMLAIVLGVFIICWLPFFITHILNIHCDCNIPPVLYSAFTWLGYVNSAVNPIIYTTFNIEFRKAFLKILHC

| SMILES | inhibition |
| --- | --- |
| CCOc1ccc(-c2nc(CSCC(=O)N3CCN(c4ccc(F)cc4)CC3)c(C)o2)cc1 | 28.1% |
| CC1CCN(CCCOc2ccc(Cl)cc2Br)CC1 | active: 33.5% |
| O=C(CCC1N=C2c3ccccc3N=C(SCc3ccc(F)cc3)N2C1=O)NCc1ccc(F)cc1 (centres undefined) | 17.7% |
| COc1ccc(-n2c(=O)c3c(c4cc(OC)ccc4n3C)n(Cc3cccc(OC)c3)c2=O)cc1 | -1.02% |
| COc1ccc(-c2cc3nc(C)c(CCC(=O)Nc4ccccc4C(C)=O)c(C)n3n2)c(OC)c1 | -10.1% |
| CCc1cccc(C)c1NC(=O)Cn1ccn(-c2cccc(OC)c2)c(=O)c1=O | 1.37% |
| Cc1cccc(Cn2c(SCc3ccc(C(=O)NCCc4ccccc4)cc3)nc3ccncc32)c1 | 9.37% |
| O=C(CCc1nc(CN2CCN(S(=O)(=O)c3ccc(Cl)cc3)CC2)no1)N1CCCCC1 | 3.9% |
| O=C(CSCc1cccc(F)c1)NCc1ccccc1 | -4.65% |
| Fc1cccc(-n2ncc3c2ncn2nc(COc4ccc(Cl)cc4)nc32)c1 | -24.5% |
| COc1ccc(Cl)cc1NC(=O)CSc1nccn1Cc1ccco1 | -16.5% |
| Cc1csc2nc(COC(=O)c3ccccc3NC(=O)c3ccc(F)cc3)cc(=O)n12 | 13.2% |
| CCc1ccc(CN2C(=O)c3ccccc3C2C(=O)NCCc2ccc(OC)c(OC)c2)cc1 (centres undefined) | 8.93% |
| CN(CC(=O)Nc1cccc(C(F)(F)F)c1)S(=O)(=O)c1ccc2[nH]c3c(c2c1)CCCC3 | -0.501% |
| COc1cccc(NC(=O)CSc2nc3ccccc3nc2N2CCOCC2)c1 | -4.96% |
| CCCN(C(=O)CCc1nc(-c2ccccc2F)no1)c1ccc(CC)cc1 | 13% |
| COc1ccc(NC(=O)c2cc3c(=O)[nH]c4ccccc4c3n2C)cc1Cl | -3.73% |
| COc1ccc(CC(=O)NCc2nc3cccnc3n2Cc2ccc(F)cc2)cc1OC | 12% |
| Cc1ccc(C)c(N2CCN(C(=O)c3ccc(CS(=O)(=O)c4ccc(Br)cc4)o3)CC2)c1 | 1.99% |
| CCOc1cc2[nH]c(=O)n(Cc3ccc(C(=O)NCCN(CC)CC)cc3)c(=O)c2cc1OCC | 0.833% |

| SMILES | inhibition |
| --- | --- |
| Cc1ccccc1NC(=O)c1sc2nc3c(cc2c1N)CCCC3 | 13.4% |
| COc1cc(C2CC(=O)c3c([nH]c(C(=O)OC4CCCCC4)c3C)C2)cc(OC)c1OC (centres undefined) | 10.5% |
| CCCCn1c2ccc(F)cc2c2nnc(SCCN(CC)CC)nc21 | -11.1% |
| Cc1ccc(CNC(=O)c2c3c(nc4ccccc24)C(=O)N(C2CCCCC2)C3)cc1 | 3.34% |
| Cc1ccc(C(=O)Nc2ccc3c(c2)OCO3)cc1NC(=O)c1ccco1 | active: 47.7% |
| CCOC(=O)c1cc(S(=O)(=O)N2CCN(c3ccc(OC)cc3)CC2)[nH]n1 | 8.13% |
| Cc1cccc(C)c1OCc1nc2c3cnn(-c4cccc(F)c4)c3ncn2n1 | 3.56% |
| COc1ccc(CCNC(=O)CCCn2c(=O)c3ccccc3n(Cc3ccccc3C)c2=O)cc1OC | -6.44% |
| Cc1ccc(Nc2c(-c3ccc(N4CCOCC4)cc3)nc3ncccn23)cc1 | -16.3% |
| Cc1ccc(C(=O)Nc2c(C(=O)NCc3ccc(Cl)cc3)sc3nc(C)cc(C)c23)cc1 | 9.21% |
| CCN(C(=O)c1oc2ccc(S(=O)(=O)N3CCCCCC3)cc2c1C)c1ccccc1 | 23.6% |
| CCOC(=O)c1cccc(NC(=O)CN2C(=O)CC(C)(C)Sc3ccccc32)c1 | 13.8% |
| O=C1C(=O)N(C2CCN(S(=O)(=O)c3ccc(F)cc3)CC2)CCN1Cc1ccccc1 | 5.14% |
| Cc1cccc(NC(=O)N2CCC(CN3CCc4ccccc4C3)CC2)c1C | -22.2% |
| CN1C(=O)C(C)(C)c2cc(S(=O)(=O)NCc3ccc(C(=O)Nc4ccc(Cl)cc4)cc3)ccc21 | -0.246% |
| CCOc1ccc(NC(=O)Cn2cc(C(=O)c3ccc(C)c(C)c3)c(=O)c3cc4c(cc32)OCCO4)cc1 | 10.7% |
| O=S(=O)(NCc1cccc(Br)c1)c1ccc(-c2cc(C(F)(F)F)on2)s1 | 10.4% |
| COc1ccccc1CNC(=O)CN1C(=O)COc2ccc(S(=O)(=O)N3CCCCC3)cc21 | -8% |
| COc1ccc(C(=O)Nc2ccc3nc(SCC(=O)N4CCCc5ccccc54)sc3c2)cc1 | 11% |
| COC(=O)c1sccc1S(=O)(=O)N(CC(=O)NCc1ccc(C)cc1)c1ccc(Cl)cc1 | 12.6% |

| SMILES | inhibition |
| --- | --- |
| COC(=O)CN1C(=O)CSc2ccc(S(=O)(=O)N3CCOCC3)cc21 | -3.94% |
| CCN(CC)C(=O)c1sc2c(c1C)c(=O)n(-c1ccc(Cl)c(Cl)c1)c(=O)n2Cc1cc(=O)n2c(C)cccc2n1 | 9.47% |
| CCCCn1cc(S(=O)(=O)c2ccc(OC)cc2)c(=O)c2cc(F)c(N3CCCC3)cc21 | -4.1% |
| Cc1ccc(Sc2ccc(CN3CCCC3)cc2[N+](=O)[O-])cc1 | active: 36.4% |
| Cc1ccc(-c2nc(C)c(CCNS(=O)(=O)c3ccccc3F)s2)cc1 | 2.02% |
| COc1ccc(-n2nc(C(=O)Nc3cccc(C(F)(F)F)c3)c3c4ccccc4n(C)c3c2=O)cc1 | -2.53% |
| Cc1ccccc1NC(=O)CSC1=Nc2ccccc2C2=NC(CCC(=O)NCc3ccccc3)C(=O)N12 (centres undefined) | -0.676% |
| Cc1nn(CC(=O)NCc2ccccc2Cl)c(=O)c2nn(-c3ccccc3)c(C)c12 | 8.59% |
| Cc1nc(CC(=O)Nc2ccc(N(C)C)cc2)cs1 | 6.7% |
| CCc1ccc(-n2nc(C)c3c(C(=O)Nc4cc(OC)cc(OC)c4)cc(C)nc32)cc1 | 10.1% |
| CCOc1ccc(-c2nc(SCC(=O)NCCOC)c(-c3ccc(OC)c(OC)c3)[nH]2)cc1 | -4.24% |
| CCN(CC(=O)Nc1cc(Cl)ccc1C)C(=O)COc1cccc2c1OC(C)(C)C2 | active: 43.2% |
| Cc1cc(C)cc(NC(=O)CSc2nc(-c3cccc(Cl)c3)nc3c2Cc2c(CO)cnc(C)c2O3)c1 | -18.2% |
| CSc1nc2sc3c(c2c(=O)n1-c1ccc(F)c(Cl)c1)CCN(C(C)=O)C3 | 9.27% |
| COc1ccc(CNC(=O)Cn2c(SCC(=O)Nc3ccc(C)c(C)c3)nc3ccccc32)cc1 | -3.73% |
| CCOc1ccc(NC(=O)CSc2nnc(C3CC3)n2C)cc1S(=O)(=O)N1CCCCC1 | active: 43.8% |
| COc1ccc(S(=O)(=O)NCCc2csc(-c3ccc(F)cc3)n2)cc1 | -1.11% |
| Cc1cc(C)cc(OCC(=O)Nc2ccc(S(=O)(=O)Nc3onc(C)c3C)cc2)c1 | -0.893% |
| CCC(C)C(NC(N)=O)C(=O)NC1CCC(C)CC1 (centres undefined) | active: 32.9% |
